Data published in the supplement of paper PMC3353916.
± gives the standard deviation of the averaged measurements.

Tested on: Sindbis virus TE/5'2J-GFP
Assay: percent infected (GFP+ in RFP+ ISG-expressing cells); higher = more infection (less antiviral activity)
Procedure: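 Confirmatory testing of 87 ISGs. Triplicate wells of BHK/HA-Zeo (control) or BHK/NZAP-Zeo (ZAP) cells were transduced with lentiviruses co-expressing a human ISG plus TagRFP, then infected 48 h later with SINV TE/5'2J-GFP (moi 5). The % GFP+ cells among RFP+ cells was measured by flow cytometry at 8 h post infection. Fluc lentivirus served as control. Three independent experiments.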

[1] = experiment: confirmatory screen 1, BHK/HA-Zeo (control)
[2] = experiment: confirmatory screen 1, BHK/NZAP-Zeo (ZAP)
[3] = experiment: confirmatory screen 2, BHK/HA-Zeo (control)
[4] = experiment: confirmatory screen 2, BHK/NZAP-Zeo (ZAP)
[5] = experiment: confirmatory screen 3, BHK/HA-Zeo (control)
[6] = experiment: confirmatory screen 3, BHK/NZAP-Zeo (ZAP)
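Further: Interferon-defective BHK-21 derivatives, ZAP line overexpressing the rat ZAP N-terminal zinc finger domain fused to Zeocin resistance, GFP scored within live singlet TagRFP+ cells.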

Substance	percent infected [1] [%]	percent infected [2] [%]	percent infected [3] [%]	percent infected [4] [%]	percent infected [5] [%]	percent infected [6] [%]
CXCL10 (no sequence given)	95.6 ± 1.7	85.71 ± 0.65	95.22 ± 0.18	94.02 ± 0.3	92.28 ± 0.59	92.05 ± 0.13
ISG15 (no sequence given)	94.6 ± 1.1	83.8 ± 2	95.82 ± 0.47	93.84 ± 0.38	94.41 ± 0.1	92 ± 0.57
